According to article PMC10424150:
Positions count from the first letter of the chain named. No constants are given. Whether binding was seen depends on the method and setting. Binding seen in cells or lysates may run through a third protein. Some entries that bind do so weakly or less than the wild type. For some of these results: Sequences can lack the tags named with a protein.

Sequences of proteins named here, by UniProt entry; tags and fusion partners are left off.
UniProt Q8NHY2: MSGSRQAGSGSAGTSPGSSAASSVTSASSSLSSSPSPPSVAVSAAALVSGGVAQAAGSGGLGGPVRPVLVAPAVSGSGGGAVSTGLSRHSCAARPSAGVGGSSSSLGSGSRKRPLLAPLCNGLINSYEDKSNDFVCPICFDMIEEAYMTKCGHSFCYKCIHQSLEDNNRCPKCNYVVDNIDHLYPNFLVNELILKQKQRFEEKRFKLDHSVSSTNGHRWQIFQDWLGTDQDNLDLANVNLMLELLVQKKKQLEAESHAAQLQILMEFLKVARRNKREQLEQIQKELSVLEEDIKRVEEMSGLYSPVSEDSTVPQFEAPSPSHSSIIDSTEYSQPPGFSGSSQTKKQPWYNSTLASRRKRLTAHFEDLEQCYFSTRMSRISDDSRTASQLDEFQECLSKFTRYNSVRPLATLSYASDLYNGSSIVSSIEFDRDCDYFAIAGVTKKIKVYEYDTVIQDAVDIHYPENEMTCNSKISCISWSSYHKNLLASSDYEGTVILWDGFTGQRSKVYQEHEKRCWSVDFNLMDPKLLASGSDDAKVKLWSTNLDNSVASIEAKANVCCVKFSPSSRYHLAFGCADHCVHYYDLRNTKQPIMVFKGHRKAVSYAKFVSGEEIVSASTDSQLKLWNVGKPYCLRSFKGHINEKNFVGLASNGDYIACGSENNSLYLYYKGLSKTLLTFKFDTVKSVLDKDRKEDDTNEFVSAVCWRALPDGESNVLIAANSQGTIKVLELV
UniProt Q14160: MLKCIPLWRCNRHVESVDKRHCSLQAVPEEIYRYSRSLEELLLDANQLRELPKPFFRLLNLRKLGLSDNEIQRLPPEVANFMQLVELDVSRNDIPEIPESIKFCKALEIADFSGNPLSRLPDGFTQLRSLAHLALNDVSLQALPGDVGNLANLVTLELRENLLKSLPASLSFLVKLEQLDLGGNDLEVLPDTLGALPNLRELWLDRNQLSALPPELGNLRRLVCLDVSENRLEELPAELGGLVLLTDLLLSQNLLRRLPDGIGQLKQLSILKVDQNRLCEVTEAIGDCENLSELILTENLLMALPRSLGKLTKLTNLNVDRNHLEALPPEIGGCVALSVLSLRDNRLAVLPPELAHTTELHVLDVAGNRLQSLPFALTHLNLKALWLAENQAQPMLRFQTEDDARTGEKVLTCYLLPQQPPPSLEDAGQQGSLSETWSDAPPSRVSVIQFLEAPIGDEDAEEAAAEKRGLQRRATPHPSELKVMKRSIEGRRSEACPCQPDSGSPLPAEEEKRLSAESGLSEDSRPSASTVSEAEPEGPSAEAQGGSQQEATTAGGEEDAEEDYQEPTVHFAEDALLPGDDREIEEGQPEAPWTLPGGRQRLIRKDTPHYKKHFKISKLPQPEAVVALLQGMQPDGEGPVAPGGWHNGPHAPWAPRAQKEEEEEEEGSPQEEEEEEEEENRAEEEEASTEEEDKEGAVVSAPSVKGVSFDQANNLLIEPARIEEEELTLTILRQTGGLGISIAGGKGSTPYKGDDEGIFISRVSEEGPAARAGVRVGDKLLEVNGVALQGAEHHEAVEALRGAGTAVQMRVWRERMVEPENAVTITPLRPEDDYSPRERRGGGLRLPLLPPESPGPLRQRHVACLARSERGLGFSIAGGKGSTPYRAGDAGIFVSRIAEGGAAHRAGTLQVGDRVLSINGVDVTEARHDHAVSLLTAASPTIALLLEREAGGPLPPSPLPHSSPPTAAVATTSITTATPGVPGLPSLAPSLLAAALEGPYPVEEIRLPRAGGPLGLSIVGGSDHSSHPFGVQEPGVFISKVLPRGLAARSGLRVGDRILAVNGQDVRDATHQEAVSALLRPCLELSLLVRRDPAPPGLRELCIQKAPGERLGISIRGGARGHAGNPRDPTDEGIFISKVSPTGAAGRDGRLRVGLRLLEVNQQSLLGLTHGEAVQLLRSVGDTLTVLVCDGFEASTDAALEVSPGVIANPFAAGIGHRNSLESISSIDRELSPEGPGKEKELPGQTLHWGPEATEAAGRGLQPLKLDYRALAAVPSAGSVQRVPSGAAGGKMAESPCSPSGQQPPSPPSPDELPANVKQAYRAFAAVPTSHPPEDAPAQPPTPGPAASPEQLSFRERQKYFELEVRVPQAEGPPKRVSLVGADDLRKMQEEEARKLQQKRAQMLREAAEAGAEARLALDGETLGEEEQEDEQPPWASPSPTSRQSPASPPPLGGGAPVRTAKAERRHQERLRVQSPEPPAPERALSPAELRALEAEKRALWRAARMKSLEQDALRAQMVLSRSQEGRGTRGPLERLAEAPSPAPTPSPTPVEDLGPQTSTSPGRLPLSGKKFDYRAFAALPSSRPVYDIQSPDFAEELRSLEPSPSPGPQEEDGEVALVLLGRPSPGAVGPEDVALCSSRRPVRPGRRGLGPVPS

What was measured:
Experiment in all cases: co-IP; FLAG-fusion baits overexpressed in HEK293; sonicated lysates (20 mM Tris-HCl pH 7.5, 20 mM NaCl, 0.5% IGEPAL CA-630, 1 mM DTT, 1 mM EDTA, 0.1 mM MG-132) rotated with anti-FLAG M2 magnetic beads for 3 hours, washed 3 times; endogenous partners detected by Western blot
[1] = target: FLAG-COP1, human E3 ubiquitin ligase constitutive photomorphogenic 1 (human) (UniProt Q8NHY2)
[2] = target: T1, FLAG-TRAF7 N520S, meningioma mutant of full-length human TRAF7 (human) (UniProt Q6Q0C0)
T1 sequence: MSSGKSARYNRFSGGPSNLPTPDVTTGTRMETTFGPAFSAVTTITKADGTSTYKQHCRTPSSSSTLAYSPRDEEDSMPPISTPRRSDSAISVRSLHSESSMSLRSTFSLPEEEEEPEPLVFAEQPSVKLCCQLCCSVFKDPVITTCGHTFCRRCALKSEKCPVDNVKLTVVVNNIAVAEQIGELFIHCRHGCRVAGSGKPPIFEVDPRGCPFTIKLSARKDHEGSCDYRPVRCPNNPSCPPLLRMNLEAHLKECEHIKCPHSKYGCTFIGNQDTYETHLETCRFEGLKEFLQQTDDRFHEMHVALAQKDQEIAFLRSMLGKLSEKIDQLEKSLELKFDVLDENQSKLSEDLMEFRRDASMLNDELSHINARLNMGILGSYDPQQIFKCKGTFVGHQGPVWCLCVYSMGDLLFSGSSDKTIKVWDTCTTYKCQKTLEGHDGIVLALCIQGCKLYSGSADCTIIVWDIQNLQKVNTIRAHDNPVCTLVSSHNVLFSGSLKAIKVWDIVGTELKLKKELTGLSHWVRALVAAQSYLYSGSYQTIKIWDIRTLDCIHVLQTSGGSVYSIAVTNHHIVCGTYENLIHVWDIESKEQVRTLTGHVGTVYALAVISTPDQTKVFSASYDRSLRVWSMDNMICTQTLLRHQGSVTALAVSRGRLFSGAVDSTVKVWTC

[3] = target: T2, FLAG-TRAF7(1-127) (human) (UniProt Q6Q0C0)
T2 sequence: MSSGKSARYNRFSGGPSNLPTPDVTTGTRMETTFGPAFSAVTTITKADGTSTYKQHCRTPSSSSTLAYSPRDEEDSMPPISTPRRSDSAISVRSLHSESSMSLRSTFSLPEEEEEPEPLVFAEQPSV

[4] = target: T3, FLAG-TRAF7(1-292) (human) (UniProt Q6Q0C0)
T3 sequence: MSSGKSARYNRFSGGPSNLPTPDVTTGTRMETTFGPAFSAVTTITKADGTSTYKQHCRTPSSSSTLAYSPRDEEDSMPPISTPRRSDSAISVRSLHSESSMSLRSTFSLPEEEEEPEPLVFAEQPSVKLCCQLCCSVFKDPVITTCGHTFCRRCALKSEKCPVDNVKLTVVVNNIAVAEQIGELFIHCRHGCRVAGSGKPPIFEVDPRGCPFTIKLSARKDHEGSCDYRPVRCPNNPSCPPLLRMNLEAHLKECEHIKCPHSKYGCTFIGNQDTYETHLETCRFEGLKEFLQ

[5] = target: T4, FLAG-TRAF7(121-292) (human) (UniProt Q6Q0C0)
T4 sequence: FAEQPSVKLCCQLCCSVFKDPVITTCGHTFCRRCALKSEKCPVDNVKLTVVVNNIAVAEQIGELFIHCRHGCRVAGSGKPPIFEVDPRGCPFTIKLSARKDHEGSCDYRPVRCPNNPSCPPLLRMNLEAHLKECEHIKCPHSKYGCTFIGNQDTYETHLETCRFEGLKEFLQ

[6] = target: T5, FLAG-TRAF7, full-length human TRAF7 (human) (UniProt Q6Q0C0)
T5 sequence: T1 sequence with S520N

[7] = target: FLAG-fusion protein of bacterial alkaline phosphatase (BAP) [phosphatase: P00634]

binding [1]: no binding | binding [2]: binds | binding [3]: no binding | binding [4]: binds | binding [5]: no binding | binding [6]: binds | binding [7]: no binding
Substance: planar cell polarity protein scribble homolog (SCRIB), endogenous (from UniProt Q14160 1-1655)
